Test results reported in a compilation of properties of binary mixtures (doi:10.1016/j.molliq.2020.113457).
Some of these densities may be calculated back from excess volumes.

Assay: xn = mol fraction of the nth substance listed
Conditions: 101 kPa

CCCC[n+]1ccn(C)c1.F[B-](F)(F)F + C=CC(=O)OC
x1 = 1
Conditions	mass density [kg/m3]
293.15 K	1205.6
298.15 K	1202.6
308.15 K	1195.9
318.15 K	1188.3

C=CC(=O)OC + CCCC[n+]1ccn(C)c1.F[B-](F)(F)F
mass density [kg/m3]
Conditions	293.15 K	298.15 K	303.15 K	308.15 K	313.15 K	318.15 K
x2 = 0	955.4	–	943.1	936.9	–	–
x2 = 0.0694	989.8	984.1	978.4	972.6	966.9	961
x2 = 0.1387	–	1014.7	1009.3	1003.9	–	993.1
x2 = 0.1889	1039.6	1034.5	1029.4	1024.3	1019.1	1013.8
x2 = 0.239	1057.5	1052.7	1047.8	1042.8	–	1032.7
x2 = 0.3354	1087.8	1083.4	–	1074.3	1069.6	–
x2 = 0.4317	1113.7	1109.7	–	1101.1	1096.7	1092.1
x2 = 0.5005	1129.9	1126	1122.1	1117.9	1113.7	1109.2
x2 = 0.5693	1144.3	1140.7	1136.9	1132.9	1128.8	1124.5
x2 = 0.6532	1160	1156.5	1152.9	1149.1	1145.2	–
x2 = 0.737	1173.7	1170.4	1166.9	1163.3	1159.6	1155.6
x2 = 0.7927	1181.8	1178.6	1175.2	1171.7	1168	1164.1
x2 = 0.8484	1189.1	1186	1182.7	–	1175.6	1171.8
x2 = 0.9242	–	1194.9	1191.7	1188.3	1184.7	–
